This is one part of the list.
These sequences were tested against T1, MBP-FoxP1dN (Mus musculus, UniProt P58462 326-579) (assay: PD-seq (MBP pull-down with sequencing); 20 mM Tris-HCl pH 7.5, 100 mM NaCl, 1.5 mM MgCl2, 0.4 uM protein, 0.1 uM dsDNA library, 30 min, room temperature, amylose pull-down; high values mean tight binding). Details: protein: recombinant; tags: His6-MBP; chain copies: 2; dsDNA, one strand shown.
T1 sequence: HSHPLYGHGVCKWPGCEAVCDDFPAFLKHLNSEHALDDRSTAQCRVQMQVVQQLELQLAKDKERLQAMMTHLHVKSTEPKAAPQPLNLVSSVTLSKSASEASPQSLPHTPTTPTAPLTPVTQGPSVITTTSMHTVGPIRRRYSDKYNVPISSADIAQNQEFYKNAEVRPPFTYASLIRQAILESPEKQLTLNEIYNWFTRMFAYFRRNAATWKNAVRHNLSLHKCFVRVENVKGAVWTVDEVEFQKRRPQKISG
How it was run: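 His6-MBP-tagged mouse FoxP3 or FoxP1 fragment lacking the N-terminus, expressed in E. coli, was mixed at 0.4 µM with 0.1 µM Klenow-filled double-stranded degenerate DNA library. Incubation was 30 min at room temperature in Tris pH 7.5 buffer with NaCl and MgCl2. Complexes were caught on amylose resin and washed three times; DNA was released with proteinase K, PCR-barcoded and Illumina-sequenced. Binding is reads-per-million enrichment, pull-down over input, with replicates pooled.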

**Q.** Which binding signal does the source give for “GATGATTGTTCTCCCAGCTGATGAATTATGCGGCTCGAGTAAACAAATTTTCCTAATCTTTCTGTTCAAGCGCCATCTAC” here?
**A.** 0.914 RPM ratio (pull-down/input)

**Q.** Which binding signal does the source give for “GATGATTGTTCTCCCAGCTGATGAATTGCAACGATCGAGTAAACAAATTTTCCTAATCTTTCTGTTCAAGCGCCATCTAC” here?
**A.** 1.2 RPM ratio (pull-down/input)

**Q.** With “GATGATTGTTCTCCCAGCTGATGAATTCTGTAGGTCGAGTAAACAAATTTTCCTAATCTTTCTGTTCAAGCGCCATCTAC” as the sequence, how does the binding signal read?
**A.** 0.84 RPM ratio (pull-down/input)

**Q.** For “GATGATTGTTCTCCCAGCTGATGAATTACTACGTTCGAGTAAACAAATTTTCCTAATCTTTCTGTTCAAGCGCCATCTAC”, which binding signal is on record?
**A.** 1.15 RPM ratio (pull-down/input)

**Q.** How did the binding signal turn out when “GATGATTGTTCTCCCAGCTGATGAATTTGAGACCTCGAGTAAACAAATTTTCCTAATCTTTCTGTTCAAGCGCCATCTAC” was run?
**A.** 0.757 RPM ratio (pull-down/input)

**Q.** With “GATGATTGTTCTCCCAGCTGATGAATTAGGGATATCGAGTAAACAAATTTTCCTAATCTTTCTGTTCAAGCGCCATCTAC” as the sequence, how does the binding signal read?
**A.** 0.862 RPM ratio (pull-down/input)

**Q.** Which binding signal does the source give for “GATGATTGTTCTCCCAGCTGATGAATTGGGTAGTTCGAGTAAACAAATTTTCCTAATCTTTCTGTTCAAGCGCCATCTAC” here?
**A.** 0.859 RPM ratio (pull-down/input)

**Q.** For “GATGATTGTTCTCCCAGCTGATGAATTAAGCTGATCGAGTAAACAAATTTTCCTAATCTTTCTGTTCAAGCGCCATCTAC”, which binding signal is on record?
**A.** 0.849 RPM ratio (pull-down/input)

**Q.** With “GATGATTGTTCTCCCAGCTGATGAATTCTACCACTCGAGTAAACAAATTTTCCTAATCTTTCTGTTCAAGCGCCATCTAC” as the sequence, how does the binding signal read?
**A.** 0.884 RPM ratio (pull-down/input)

**Q.** With “GATGATTGTTCTCCCAGCTGATGAATTAAACAGATCGAGTAAACAAATTTTCCTAATCTTTCTGTTCAAGCGCCATCTAC” as the sequence, how does the binding signal read?
**A.** 1.27 RPM ratio (pull-down/input)

**Q.** For “GATGATTGTTCTCCCAGCTGATGAATTAGGCATATCGAGTAAACAAATTTTCCTAATCTTTCTGTTCAAGCGCCATCTAC”, which binding signal is on record?
**A.** 0.996 RPM ratio (pull-down/input)

**Q.** With “GATGATTGTTCTCCCAGCTGATGAATTGCTAACCTCGAGTAAACAAATTTTCCTAATCTTTCTGTTCAAGCGCCATCTAC” as the sequence, how does the binding signal read?
**A.** 1.06 RPM ratio (pull-down/input)

**Q.** Which binding signal does the source give for “GATGATTGTTCTCCCAGCTGATGAATTTAAATAGTCGAGTAAACAAATTTTCCTAATCTTTCTGTTCAAGCGCCATCTAC” here?
**A.** 0.966 RPM ratio (pull-down/input)

**Q.** For “GATGATTGTTCTCCCAGCTGATGAATTTGACTCATCGAGTAAACAAATTTTCCTAATCTTTCTGTTCAAGCGCCATCTAC”, which binding signal is on record?
**A.** 0.878 RPM ratio (pull-down/input)

**Q.** For “GATGATTGTTCTCCCAGCTGATGAATTGCGAGTCTCGAGTAAACAAATTTTCCTAATCTTTCTGTTCAAGCGCCATCTAC”, which binding signal is on record?
**A.** 0.957 RPM ratio (pull-down/input)

**Q.** “GATGATTGTTCTCCCAGCTGATGAATTAATAGACTCGAGTAAACAAATTTTCCTAATCTTTCTGTTCAAGCGCCATCTAC” was tested. Which binding signal did it give?
**A.** 0.876 RPM ratio (pull-down/input)

**Q.** With “GATGATTGTTCTCCCAGCTGATGAATTCACGGAATCGAGTAAACAAATTTTCCTAATCTTTCTGTTCAAGCGCCATCTAC” as the sequence, how does the binding signal read?
**A.** 0.964 RPM ratio (pull-down/input)

**Q.** “GATGATTGTTCTCCCAGCTGATGAATTGAGACCTTCGAGTAAACAAATTTTCCTAATCTTTCTGTTCAAGCGCCATCTAC” was tested. Which binding signal did it give?
**A.** 0.859 RPM ratio (pull-down/input)

**Q.** How did the binding signal turn out when “GATGATTGTTCTCCCAGCTGATGAATTTGACTAATCGAGTAAACAAATTTTCCTAATCTTTCTGTTCAAGCGCCATCTAC” was run?
**A.** 0.952 RPM ratio (pull-down/input)

**Q.** With “GATGATTGTTCTCCCAGCTGATGAATTTTTACGGTCGAGTAAACAAATTTTCCTAATCTTTCTGTTCAAGCGCCATCTAC” as the sequence, how does the binding signal read?
**A.** 0.896 RPM ratio (pull-down/input)

**Q.** Which binding signal does the source give for “GATGATTGTTCTCCCAGCTGATGAATTATAGGTTTCGAGTAAACAAATTTTCCTAATCTTTCTGTTCAAGCGCCATCTAC” here?
**A.** 0.92 RPM ratio (pull-down/input)

**Q.** With “GATGATTGTTCTCCCAGCTGATGAATTCGTGATCTCGAGTAAACAAATTTTCCTAATCTTTCTGTTCAAGCGCCATCTAC” as the sequence, how does the binding signal read?
**A.** 0.884 RPM ratio (pull-down/input)

**Q.** Which binding signal does the source give for “GATGATTGTTCTCCCAGCTGATGAATTTAGCAACTCGAGTAAACAAATTTTCCTAATCTTTCTGTTCAAGCGCCATCTAC” here?
**A.** 1.06 RPM ratio (pull-down/input)

**Q.** “GATGATTGTTCTCCCAGCTGATGAATTCACCAGCTCGAGTAAACAAATTTTCCTAATCTTTCTGTTCAAGCGCCATCTAC” was tested. Which binding signal did it give?
**A.** 0.809 RPM ratio (pull-down/input)

**Q.** “GATGATTGTTCTCCCAGCTGATGAATTCAATGACTCGAGTAAACAAATTTTCCTAATCTTTCTGTTCAAGCGCCATCTAC” was tested. Which binding signal did it give?
**A.** 0.877 RPM ratio (pull-down/input)

**Q.** How did the binding signal turn out when “GATGATTGTTCTCCCAGCTGATGAATTCGTGAAGTCGAGTAAACAAATTTTCCTAATCTTTCTGTTCAAGCGCCATCTAC” was run?
**A.** 0.804 RPM ratio (pull-down/input)

**Q.** How did the binding signal turn out when “GATGATTGTTCTCCCAGCTGATGAATTGTGAAACTCGAGTAAACAAATTTTCCTAATCTTTCTGTTCAAGCGCCATCTAC” was run?
**A.** 1.1 RPM ratio (pull-down/input)

**Q.** With “GATGATTGTTCTCCCAGCTGATGAATTGTATGAGTCGAGTAAACAAATTTTCCTAATCTTTCTGTTCAAGCGCCATCTAC” as the sequence, how does the binding signal read?
**A.** 1.02 RPM ratio (pull-down/input)

**Q.** With “GATGATTGTTCTCCCAGCTGATGAATTTTGTGAGTCGAGTAAACAAATTTTCCTAATCTTTCTGTTCAAGCGCCATCTAC” as the sequence, how does the binding signal read?
**A.** 1.13 RPM ratio (pull-down/input)

**Q.** With “GATGATTGTTCTCCCAGCTGATGAATTTCGCGAGTCGAGTAAACAAATTTTCCTAATCTTTCTGTTCAAGCGCCATCTAC” as the sequence, how does the binding signal read?
**A.** 0.752 RPM ratio (pull-down/input)

**Q.** How did the binding signal turn out when “GATGATTGTTCTCCCAGCTGATGAATTTGGTGGCTCGAGTAAACAAATTTTCCTAATCTTTCTGTTCAAGCGCCATCTAC” was run?
**A.** 0.864 RPM ratio (pull-down/input)

From paper PMC12820563, “FoxP3 forms a head-to-head dimer in vivo and stabilizes its multimerization on adjacent microsatellites”
